According to the supplement of paper PMC8728848:
The other results are listed elsewhere or left out.

How the values were obtained:
Experiment in all cases: glycan array binding signal (z-score within array); higher = stronger binding
Settings in all cases: glycan notation: IUPAC condensed, linker removed
[1] = biological target: GlcNAc(b1-3)Gal(b1-4)GlcNAc(b1-3)Gal(b1-4)GlcNAc(b1-2)Man(a1-3)[GlcNAc(b1-3)Gal(b1-4)GlcNAc(b1-3)Gal(b1-4)GlcNAc(b1-2)Man(a1-6)]Man(b1-4)GlcNAc(b1-4)[Fuc(a1-6)]GlcNAc
Outline: (§1)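 The binding signal is a Z-score computed within each array. Data were drawn from 3228 arrays in the Consortium for Functional Glycomics database, restricted to those with a known protein sequence. Scores were averaged over arrays of the same protein sequence at different concentrations or buffers, and over linkers, and negative values can be taken as non-binding.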

[2] = biological target: GlcNAc(b1-3)Gal(b1-4)GlcNAc(b1-3)Gal(b1-4)GlcNAc(b1-2)[GlcNAc(b1-3)Gal(b1-4)GlcNAc(b1-3)Gal(b1-4)GlcNAc(b1-6)]Man(a1-6)[GlcNAc(b1-3)Gal(b1-4)GlcNAc(b1-3)Gal(b1-4)GlcNAc(b1-2)Man(a1-3)]Man(b1-4)GlcNAc(b1-4)[Fuc(a1-6)]GlcNAc
Outline: as §1

[3] = biological target: GlcNAc(b1-3)Gal(b1-4)GlcNAc(b1-3)Gal(b1-4)GlcNAc(b1-3)Gal(b1-4)GlcNAc(b1-2)Man(a1-3)[GlcNAc(b1-3)Gal(b1-4)GlcNAc(b1-3)Gal(b1-4)GlcNAc(b1-3)Gal(b1-4)GlcNAc(b1-2)Man(a1-6)]Man(b1-4)GlcNAc(b1-4)GlcNAc
Outline: as §1

[4] = biological target: GlcNAc(b1-3)Gal(b1-4)GlcNAc(b1-3)Gal(b1-4)GlcNAc(b1-3)Gal(b1-4)GlcNAc(b1-2)Man(a1-3)[GlcNAc(b1-3)Gal(b1-4)GlcNAc(b1-3)Gal(b1-4)GlcNAc(b1-3)Gal(b1-4)GlcNAc(b1-2)Man(a1-6)]Man(b1-4)GlcNAc(b1-4)[Fuc(a1-6)]GlcNAc
Outline: as §1

[5] = biological target: GlcNAc(b1-3)Gal(b1-4)GlcNAc(b1-3)Gal(b1-4)GlcNAc(b1-3)Gal(b1-4)GlcNAc(b1-2)[GlcNAc(b1-3)Gal(b1-4)GlcNAc(b1-3)Gal(b1-4)GlcNAc(b1-3)Gal(b1-4)GlcNAc(b1-6)]Man(a1-6)[GlcNAc(b1-3)Gal(b1-4)GlcNAc(b1-3)Gal(b1-4)GlcNAc(b1-3)Gal(b1-4)GlcNAc(b1-2)Man(a1-3)]Man(b1-4)GlcNAc(b1-4)[Fuc(a1-6)]GlcNAc
Outline: as §1

[6] = biological target: GlcNAc(b1-3)Gal(b1-4)GlcNAc(b1-3)Gal(b1-4)GlcNAc(b1-3)Gal(b1-4)GlcNAc(b1-3)Gal(b1-4)GlcNAc(b1-2)Man(a1-3)[GlcNAc(b1-3)Gal(b1-4)GlcNAc(b1-3)Gal(b1-4)GlcNAc(b1-3)Gal(b1-4)GlcNAc(b1-3)Gal(b1-4)GlcNAc(b1-2)Man(a1-6)]Man(b1-4)GlcNAc(b1-4)GlcNAc
Outline: as §1

[7] = biological target: GlcNAc(b1-3)Gal(b1-4)GlcNAc(b1-3)Gal(b1-4)GlcNAc(b1-3)Gal(b1-4)GlcNAc(b1-3)Gal(b1-4)GlcNAc(b1-2)Man(a1-3)[GlcNAc(b1-3)Gal(b1-4)GlcNAc(b1-3)Gal(b1-4)GlcNAc(b1-3)Gal(b1-4)GlcNAc(b1-3)Gal(b1-4)GlcNAc(b1-2)Man(a1-6)]Man(b1-4)GlcNAc(b1-4)[Fuc(a1-6)]GlcNAc
Outline: as §1

[8] = biological target: GlcNAc(b1-3)Gal(b1-4)GlcNAc(b1-3)Gal(b1-4)GlcNAc(b1-3)Gal(b1-4)GlcNAc(b1-3)Gal(b1-4)GlcNAc(b1-2)[GlcNAc(b1-3)Gal(b1-4)GlcNAc(b1-3)Gal(b1-4)GlcNAc(b1-3)Gal(b1-4)GlcNAc(b1-3)Gal(b1-4)GlcNAc(b1-6)]Man(a1-6)[GlcNAc(b1-3)Gal(b1-4)GlcNAc(b1-3)Gal(b1-4)GlcNAc(b1-3)Gal(b1-4)GlcNAc(b1-3)Gal(b1-4)GlcNAc(b1-2)Man(a1-3)]Man(b1-4)GlcNAc(b1-4)[Fuc(a1-6)]GlcNAc
Outline: as §1

[9] = biological target: GlcNAc(b1-3)Gal(b1-4)GlcNAc(b1-3)Gal(b1-4)GlcNAc(b1-3)GalNAc
Outline: as §1

[10] = biological target: GlcNAc(b1-3)Gal(b1-4)GlcNAc(b1-3)GalNAc
Outline: as §1

[11] = biological target: GlcNAc(b1-3)Gal(b1-4)GlcNAc(b1-3)[GlcNAc(b1-3)Gal(b1-4)GlcNAc(b1-3)]GalNAc
Outline: as §1

[12] = biological target: GlcNAc(b1-3)Gal(b1-4)GlcNAc(b1-6)[Gal(b1-3)]GalNAc
Outline: as §1

[13] = biological target: GlcNAc(b1-3)Gal(b1-4)GlcNAc(b1-6)[GlcNAc(b1-3)Gal(b1-3)]GalNAc
Outline: as §1

[14] = biological target: GlcNAc(b1-3)Gal(b1-4)GlcNAc(b1-6)[GlcNAc(b1-3)]Gal(b1-4)GlcNAc
Outline: as §1

GlcNAc(b1-3)GalNAc = biological target: GlcNAc(b1-3)GalNAc
Outline: as §1

GlcNAc(b1-3)Man = biological target: GlcNAc(b1-3)Man
Outline: as §1

[15] = biological target: GlcNAc(b1-3)[GlcNAc(b1-4)][GlcNAc(b1-6)]GlcNAc
Outline: as §1

[16] = biological target: GlcNAc(b1-3)[GlcNAc(b1-6)]Gal(b1-4)GlcNAc
Outline: as §1

[17] = biological target: GlcNAc(b1-3)[GlcNAc(b1-6)]GalNAc
Outline: as §1

[18] = biological target: GlcNAc(b1-4)Gal(b1-4)GlcNAc
Outline: as §1

GlcNAc(b1-4)GlcNAc = biological target: GlcNAc(b1-4)GlcNAc
Outline: as §1

[19] = biological target: GlcNAc(b1-4)GlcNAc(b1-4)GlcNAc
Outline: as §1

[20] = biological target: GlcNAc(b1-4)GlcNAc(b1-4)GlcNAc(b1-4)GlcNAc(b1-4)GlcNAc
Outline: as §1

[21] = biological target: GlcNAc(b1-4)GlcNAc(b1-4)GlcNAc(b1-4)GlcNAc(b1-4)GlcNAc(b1-4)GlcNAc
Outline: as §1

[22] = biological target: GlcNAc(b1-4)[GlcNAc(b1-6)]GalNAc
Outline: as §1

[23] = biological target: GlcNAc(b1-6)Gal(b1-4)GlcNAc
Outline: as §1

GlcNAc(b1-6)GalNAc = biological target: GlcNAc(b1-6)GalNAc
Outline: as §1

[24] = biological target: GlcNAc6S(b1-3)Gal(b1-4)GlcNAc
Outline: as §1

Kdn(a2-3)Gal(b1-3)GalNAc = biological target: Kdn(a2-3)Gal(b1-3)GalNAc
Outline: as §1

Kdn(a2-3)Gal(b1-3)GlcNAc = biological target: Kdn(a2-3)Gal(b1-3)GlcNAc
Outline: as §1

Kdn(a2-3)Gal(b1-4)Glc = biological target: Kdn(a2-3)Gal(b1-4)Glc
Outline: as §1

Kdn(a2-3)Gal(b1-4)GlcNAc = biological target: Kdn(a2-3)Gal(b1-4)GlcNAc
Outline: as §1

[25] = biological target: Kdn(a2-3)Gal(b1-4)[Fuc(a1-3)]GlcNAc
Outline: as §1

Kdn(a2-6)Gal(b1-4)GlcNAc = biological target: Kdn(a2-6)Gal(b1-4)GlcNAc
Outline: as §1

[26] = biological target: Man(a1-2)Man(a1-2)Man(a1-3)Man
Outline: as §1

[27] = biological target: Man(a1-2)Man(a1-2)Man(a1-6)[Man(a1-3)]Man
Outline: as §1

Man(a1-2)Man(a1-3)Man = biological target: Man(a1-2)Man(a1-3)Man
Outline: as §1

[28] = biological target: Man(a1-2)Man(a1-3)[Man(a1-2)Man(a1-6)]Man
Outline: as §1

B1: Epa22 (Candida glabrata) (protein)
chain: MGSSHHHHHHSSGLVPRGSHMKRALSSQNPFGYPIGCSPQSTNVIPGLTMELYSYPIVSGTPPNCYDASYVDPEYPRTGYLKRKMIGKSTGVTGSLNYKFSVEKACMVKYGNLPAGYNYNEPLTVSNFTMLLYGYFKPQTSGIHTFFVNADDLLYINFGAGNAFDCCKREDSKFKLGEYVAYDIWHVDSSKNKVSLNLEKDVYYPIRMFFNNIGKDSSLDLSFSVNGAVEHITDFSGYLYSVPDQPDACPAPIGYDTTCK
glycan array binding signal (z-score) [1]: -0.309
glycan array binding signal (z-score) [2]: -0.317
glycan array binding signal (z-score) [3]: -0.364
glycan array binding signal (z-score) [4]: -0.26
glycan array binding signal (z-score) [5]: -0.37
glycan array binding signal (z-score) [6]: -0.344
glycan array binding signal (z-score) [7]: -0.188
glycan array binding signal (z-score) [8]: -0.378
glycan array binding signal (z-score) [9]: -0.324
glycan array binding signal (z-score) [10]: -0.305
glycan array binding signal (z-score) [11]: -0.299
glycan array binding signal (z-score) [12]: -0.293
glycan array binding signal (z-score) [13]: -0.331
glycan array binding signal (z-score) [14]: -0.387
glycan array binding signal (z-score) (GlcNAc(b1-3)GalNAc): -0.37
glycan array binding signal (z-score) (GlcNAc(b1-3)Man): -0.35
glycan array binding signal (z-score) [15]: -0.383
glycan array binding signal (z-score) [16]: -0.413
glycan array binding signal (z-score) [17]: -0.387
glycan array binding signal (z-score) [18]: -0.417
glycan array binding signal (z-score) (GlcNAc(b1-4)GlcNAc): -0.413
glycan array binding signal (z-score) [19]: -0.404
glycan array binding signal (z-score) [20]: -0.238
glycan array binding signal (z-score) [21]: -0.4
glycan array binding signal (z-score) [22]: -0.402
glycan array binding signal (z-score) [23]: 0.729
glycan array binding signal (z-score) (GlcNAc(b1-6)GalNAc): -0.395
glycan array binding signal (z-score) [24]: -0.019
glycan array binding signal (z-score) (Kdn(a2-3)Gal(b1-3)GalNAc): -0.361
glycan array binding signal (z-score) (Kdn(a2-3)Gal(b1-3)GlcNAc): -0.236
glycan array binding signal (z-score) (Kdn(a2-3)Gal(b1-4)Glc): -0.094
glycan array binding signal (z-score) (Kdn(a2-3)Gal(b1-4)GlcNAc): -0.288
glycan array binding signal (z-score) [25]: -0.317
glycan array binding signal (z-score) (Kdn(a2-6)Gal(b1-4)GlcNAc): -0.225
glycan array binding signal (z-score) [26]: -0.364
glycan array binding signal (z-score) [27]: -0.39
glycan array binding signal (z-score) (Man(a1-2)Man(a1-3)Man): -0.414
glycan array binding signal (z-score) [28]: -0.422
